# Test results from the supplement of paper PMC8728848.
# This is one part of the list.
# B1: SLR2P3F12 (Tachypleus tridentatus), TAL2_TACTR (protein)
# chain: MEKGTPPTHDSDNWMGRAKKIGNGGWNQFQFLFFDPNGYLYAVSKDKLYKASPPQSDTDNWIARATEIGSGGWSGFKSLFFHPNGYLYAVHGQRLYKALPPVSNQD
# How the values were obtained:
# Assay in all cases: glycan array binding signal (z-score within array); higher = stronger binding
# Settings in all cases: glycan notation: IUPAC condensed, linker removed
# [1] = target: Gal(b1-2)Gal
# In short: (§1)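 The Consortium for Functional Glycomics database supplied 3228 glycan arrays, of which those lacking an available protein sequence were dropped. The binding signal, a within-array Z-score, was averaged across arrays of the same protein sequence and across linkers. Negative scores can be read as non-binding.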
# [2] = target: Gal(b1-3)Gal
# In short: as §1
# [3] = target: Gal(b1-3)Gal(b1-4)GlcNAc
# In short: as §1
# [4] = target: Gal(b1-3)GalNAc
# In short: as §1
# [5] = target: Gal(b1-3)GalNAc(b1-3)Gal(a1-4)Gal(b1-4)Glc
# In short: as §1
# [6] = target: Gal(b1-3)GalNAc(b1-4)Gal(b1-4)Glc
# In short: as §1
# [7] = target: Gal(b1-3)GalNAc(b1-4)[Neu5Ac(a2-3)]Gal(b1-4)Glc
# In short: as §1
# [8] = target: Gal(b1-3)GlcNAc
# In short: as §1
# [9] = target: Gal(b1-3)GlcNAc(b1-2)Man(a1-3)[Gal(b1-3)GlcNAc(b1-2)Man(a1-6)]Man(b1-4)GlcNAc(b1-4)GlcNAc
# In short: as §1
# [10] = target: Gal(b1-3)GlcNAc(b1-3)Gal(b1-3)GlcNAc
# In short: as §1
# [11] = target: Gal(b1-3)GlcNAc(b1-3)Gal(b1-4)Glc
# In short: as §1
# [12] = target: Gal(b1-3)GlcNAc(b1-3)Gal(b1-4)GlcNAc
# In short: as §1
# [13] = target: Gal(b1-3)[Fuc(a1-4)]GlcNAc
# In short: as §1
# [14] = target: Gal(b1-3)[Fuc(a1-4)]GlcNAc(b1-3)Gal(b1-3)[Fuc(a1-4)]GlcNAc
# In short: as §1
# [15] = target: Gal(b1-3)[Fuc(a1-4)]GlcNAc(b1-3)Gal(b1-4)GlcNAc
# In short: as §1
# [16] = target: Gal(b1-3)[Fuc(a1-4)]GlcNAc(b1-3)Gal(b1-4)[Fuc(a1-3)]GlcNAc
# In short: as §1
# [17] = target: Gal(b1-3)[GlcNAc(b1-6)]GalNAc
# In short: as §1
# [18] = target: Gal(b1-3)[Neu5Ac(a2-6)]GalNAc
# In short: as §1
# [19] = target: Gal(b1-3)[Neu5Ac(a2-6)]GlcNAc(b1-6)Gal(b1-4)Glc
# In short: as §1
# [20] = target: Gal(b1-3)[Neu5Ac(b2-6)]GalNAc
# In short: as §1
# [21] = target: Gal(b1-4)GalNAc(a1-3)[Fuc(a1-2)]Gal(b1-4)GlcNAc
# In short: as §1
# [22] = target: Gal(b1-4)GalNAc(b1-3)[Fuc(a1-2)]Gal(b1-4)GlcNAc
# In short: as §1
# [23] = target: Gal(b1-4)Glc
# In short: as §1
# [24] = target: Gal(b1-4)Glc6S
# In short: as §1
# [25] = target: Gal(b1-4)GlcNAc
# In short: as §1
# [26] = target: Gal(b1-4)GlcNAc(a1-6)Gal(b1-4)GlcNAc
# In short: as §1
# [27] = target: Gal(b1-4)GlcNAc(b1-2)Man(a1-3)[Gal(b1-4)GlcNAc(b1-2)Man(a1-6)]Man(b1-4)GlcNAc(b1-4)GlcNAc
# In short: as §1
# [28] = target: Gal(b1-4)GlcNAc(b1-3)Gal(b1-3)GlcNAc
# In short: as §1
# [29] = target: Gal(b1-4)GlcNAc(b1-3)Gal(b1-4)Glc
# In short: as §1
# [30] = target: Gal(b1-4)GlcNAc(b1-3)Gal(b1-4)GlcNAc
# In short: as §1
# [31] = target: Gal(b1-4)GlcNAc(b1-3)Gal(b1-4)GlcNAc(b1-3)Gal(b1-4)GlcNAc
# In short: as §1
# [32] = target: Gal(b1-4)GlcNAc(b1-3)Gal(b1-4)[Fuc(a1-3)]GlcNAc(b1-3)Gal(b1-4)[Fuc(a1-3)]GlcNAc
# In short: as §1
# [33] = target: Gal(b1-4)GlcNAc(b1-3)GalNAc
# In short: as §1
# [34] = target: Gal(b1-4)GlcNAc(b1-3)[Gal(b1-4)GlcNAc(b1-6)]Gal(b1-4)GlcNAc
# In short: as §1
# [35] = target: Gal(b1-4)GlcNAc(b1-3)[GlcNAc(b1-6)]Gal(b1-4)GlcNAc
# In short: as §1
# [36] = target: Gal(b1-4)GlcNAc(b1-6)Gal(b1-4)GlcNAc
# In short: as §1
# [37] = target: Gal(b1-4)GlcNAc(b1-6)Gal(b1-4)GlcNAc(b1-6)GalNAc
# In short: as §1
# [38] = target: Gal(b1-4)GlcNAc(b1-6)GalNAc
# In short: as §1
# [39] = target: Gal(b1-4)GlcNAc(b1-6)[Gal(b1-3)]GalNAc
# In short: as §1
# [40] = target: Gal3S(b1-3)GalNAc
# In short: as §1
# [41] = target: Gal3S(b1-3)GlcNAc
# In short: as §1
# [42] = target: Gal3S(b1-3)[Fuc(a1-4)]GlcNAc
# In short: as §1
# [43] = target: Gal3S(b1-4)Glc
# In short: as §1
# [44] = target: Gal3S(b1-4)Glc6S
# In short: as §1
# [45] = target: Gal3S(b1-4)GlcNAc
# In short: as §1
# [46] = target: Gal3S(b1-4)GlcNAc6S
# In short: as §1
# [47] = target: Gal3S(b1-4)[Fuc(a1-3)]Glc
# In short: as §1
# [48] = target: Gal3S4S(b1-4)GlcNAc
# In short: as §1
# [49] = target: Gal3S6S(b1-4)GlcNAc
# In short: as §1
# [50] = target: Gal3S6S(b1-4)GlcNAc6S
# In short: as §1
# [51] = target: Gal4S(b1-4)GlcNAc
# In short: as §1
# [52] = target: Gal4S6S(b1-4)GlcNAc
# In short: as §1
# [53] = target: Gal6S(b1-4)Glc
# In short: as §1
# [54] = target: Gal6S(b1-4)Glc6S
# In short: as §1
# [55] = target: Gal6S(b1-4)GlcNAc
# In short: as §1
# [56] = target: Gal6S(b1-4)GlcNAc6S
# In short: as §1
# [57] = target: GalNAc(a1-3)Gal
# In short: as §1
# [58] = target: GalNAc(a1-3)GalNAc
# In short: as §1
# [59] = target: GalNAc(b1-3)Gal
# In short: as §1
# [60] = target: GalNAc(b1-3)Gal(a1-4)Gal(b1-4)GlcNAc
# In short: as §1
binder,measurement,setting,value
B1,glycan array binding signal (z-score),[1],-0.355
same,glycan array binding signal (z-score),[2],0.007
same,glycan array binding signal (z-score),[3],0.011
same,glycan array binding signal (z-score),[4],-0.132
same,glycan array binding signal (z-score),[5],-0.32
same,glycan array binding signal (z-score),[6],0.988
same,glycan array binding signal (z-score),[7],0.354
same,glycan array binding signal (z-score),[8],0.128
same,glycan array binding signal (z-score),[9],-0.027
same,glycan array binding signal (z-score),[10],-0.347
same,glycan array binding signal (z-score),[11],-0.266
same,glycan array binding signal (z-score),[12],0.012
same,glycan array binding signal (z-score),[13],0.264
same,glycan array binding signal (z-score),[14],0.248
same,glycan array binding signal (z-score),[15],0.593
same,glycan array binding signal (z-score),[16],-0.332
same,glycan array binding signal (z-score),[17],0.247
same,glycan array binding signal (z-score),[18],-0.362
same,glycan array binding signal (z-score),[19],0.693
same,glycan array binding signal (z-score),[20],-0.369
same,glycan array binding signal (z-score),[21],-0.208
same,glycan array binding signal (z-score),[22],-0.24
same,glycan array binding signal (z-score),[23],2.75
same,glycan array binding signal (z-score),[24],-0.248
same,glycan array binding signal (z-score),[25],-0.208
same,glycan array binding signal (z-score),[26],-0.379
same,glycan array binding signal (z-score),[27],-0.213
same,glycan array binding signal (z-score),[28],-0.433
same,glycan array binding signal (z-score),[29],-0.261
same,glycan array binding signal (z-score),[30],-0.175
same,glycan array binding signal (z-score),[31],-0.342
same,glycan array binding signal (z-score),[32],0.091
same,glycan array binding signal (z-score),[33],-0.337
same,glycan array binding signal (z-score),[34],-0.434
same,glycan array binding signal (z-score),[35],-0.423
same,glycan array binding signal (z-score),[36],-0.406
same,glycan array binding signal (z-score),[37],-0.18
same,glycan array binding signal (z-score),[38],-0.561
same,glycan array binding signal (z-score),[39],-0.32
same,glycan array binding signal (z-score),[40],0.134
same,glycan array binding signal (z-score),[41],-0.612
same,glycan array binding signal (z-score),[42],1.21
same,glycan array binding signal (z-score),[43],-0.387
same,glycan array binding signal (z-score),[44],0.365
same,glycan array binding signal (z-score),[45],-0.459
same,glycan array binding signal (z-score),[46],-0.207
same,glycan array binding signal (z-score),[47],-0.244
same,glycan array binding signal (z-score),[48],-0.321
same,glycan array binding signal (z-score),[49],0.076
same,glycan array binding signal (z-score),[50],-0.418
same,glycan array binding signal (z-score),[51],-0.445
same,glycan array binding signal (z-score),[52],-0.057
same,glycan array binding signal (z-score),[53],-0.13
same,glycan array binding signal (z-score),[54],-0.145
same,glycan array binding signal (z-score),[55],0.159
same,glycan array binding signal (z-score),[56],-0.455
same,glycan array binding signal (z-score),[57],0.76
same,glycan array binding signal (z-score),[58],-0.138
same,glycan array binding signal (z-score),[59],-0.359
same,glycan array binding signal (z-score),[60],-0.295
